Data on 87 compounds can be found in PMC4336329 (PLoS ONE, 2015).

Each structure is given as a SMILES string. Out of some 310,000 compounds screened, about 14,000 (4.5%) showed an effect of 50% or more. The effect is printed as a negative number. This is one part of the list.
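Note: peak tail current of the secondary pulse compared with the same well before compound.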

In the test the target is human ether-à-go-go-related gene (hERG) potassium channel (human, UniProt Q12809). Put plainly: primary screen, population patch clamp on CHO cells stably expressing hERG.
Sequence of human ether-à-go-go-related gene (hERG) potassium channel (Q12809 whole entry, looked up): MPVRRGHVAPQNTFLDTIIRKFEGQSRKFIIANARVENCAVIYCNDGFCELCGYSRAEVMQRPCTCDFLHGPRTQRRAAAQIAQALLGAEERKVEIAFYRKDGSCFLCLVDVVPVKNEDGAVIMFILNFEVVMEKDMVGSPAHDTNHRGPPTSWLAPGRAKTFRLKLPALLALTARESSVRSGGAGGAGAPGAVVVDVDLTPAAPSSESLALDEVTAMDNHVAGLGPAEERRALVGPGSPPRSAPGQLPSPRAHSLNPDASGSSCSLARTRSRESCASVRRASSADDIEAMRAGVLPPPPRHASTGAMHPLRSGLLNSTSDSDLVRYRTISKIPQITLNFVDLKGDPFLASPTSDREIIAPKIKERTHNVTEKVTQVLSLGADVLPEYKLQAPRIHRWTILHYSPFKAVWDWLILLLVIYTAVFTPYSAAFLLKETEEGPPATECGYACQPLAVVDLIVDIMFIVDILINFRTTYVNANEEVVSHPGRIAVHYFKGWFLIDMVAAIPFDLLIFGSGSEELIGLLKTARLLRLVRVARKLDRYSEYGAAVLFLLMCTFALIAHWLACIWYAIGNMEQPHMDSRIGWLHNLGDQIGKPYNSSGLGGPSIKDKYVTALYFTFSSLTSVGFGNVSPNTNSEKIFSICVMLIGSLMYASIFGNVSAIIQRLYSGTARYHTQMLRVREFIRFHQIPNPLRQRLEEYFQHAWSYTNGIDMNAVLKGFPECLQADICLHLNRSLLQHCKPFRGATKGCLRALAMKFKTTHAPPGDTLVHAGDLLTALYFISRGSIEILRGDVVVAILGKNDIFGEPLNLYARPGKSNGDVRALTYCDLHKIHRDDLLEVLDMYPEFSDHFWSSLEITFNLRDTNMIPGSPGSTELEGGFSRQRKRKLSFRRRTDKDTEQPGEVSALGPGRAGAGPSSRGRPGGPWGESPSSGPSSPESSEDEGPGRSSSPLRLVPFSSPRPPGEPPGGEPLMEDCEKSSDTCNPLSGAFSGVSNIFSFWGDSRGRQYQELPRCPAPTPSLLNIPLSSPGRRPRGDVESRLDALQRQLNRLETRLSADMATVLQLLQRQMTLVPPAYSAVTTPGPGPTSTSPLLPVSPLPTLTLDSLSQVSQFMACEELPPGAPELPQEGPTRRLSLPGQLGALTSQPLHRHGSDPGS
On to `O=C(COC(=O)c1cc([N+](=O)[O-])ccc1N1CCOCC1)NCCc1ccccc1`, for which the “hERG current change (%, negative = inhibition) at 10uM” value was -45.4%.
With `Cc1cc(N2CCOCC2)nc(SCC(=O)c2ccccc2)n1`, the “hERG current change (%, negative = inhibition) at 10uM” value was -8.29%.
Then `CC(c1ccccc1)C1C(C#N)=C(N)OC2=C1C(=O)CC(C)(C)C2` (stereo not drawn), with -56.9%.
The value for `O=C(Cn1ncc2c(=O)oc3ccccc3c21)N1CCN(c2ccccn2)CC1` was -41%; that for `O=C(NCc1cccnc1)c1ccc(NS(=O)(=O)c2ccccc2)cc1` was -15.8%; that for `COc1ccc(Cn2c(=O)[nH]c3cc(C(=O)NCc4ccc5c(c4)OCO5)ccc3c2=O)cc1` was 14%.
As to `CCOc1ccc(S(=O)(=O)NCCC(=O)NCc2cccnc2)cc1`, the “hERG current change (%, negative = inhibition) at 10uM” value was 4.31%.
The value for `O=C(CN1CCN(c2ccccc2)CC1)N1CCc2[nH]c3ccccc3c2C1` was -26.9%.
As to `O=C(Nc1ccc2c(c1)OCO2)N1CCN(c2ncccn2)CC1`, the “hERG current change (%, negative = inhibition) at 10uM” value was -2.31%.
Then `c1ccc(CSc2ncnc3sccc23)cc1`, with -16%.
Consider `CSc1cccc(NC(=S)N(CCN(C)C)C(C)c2ccncc2)c1` (stereo not drawn), for which the “hERG current change (%, negative = inhibition) at 10uM” value is -50.6%.
With `Cc1ccc(Nc2ccncc2S(N)(=O)=O)cc1`, the “hERG current change (%, negative = inhibition) at 10uM” value is recorded as -3.63%.
As to `COCCN(C(=O)c1snc(C(N)=O)c1N)C(C(=O)NC1CCCCC1)c1ccc(N(C)C)cc1` (stereo not drawn), the “hERG current change (%, negative = inhibition) at 10uM” value was -6.79%.
Regarding `CCc1nc2sc(C#N)c(N)c2c2c1CCCC2`, the “hERG current change (%, negative = inhibition) at 10uM” value was found to be 11.2%.
The value for `COc1ccccc1/C=C/C=N/NC(=O)c1cnccn1` was 13.5%.
Take `COc1cc2ncnc(N[C@H](C)c3ccccc3)c2cc1OC`: the “hERG current change (%, negative = inhibition) at 10uM” value is recorded as -14.8%.
`CCCCCCc1ccc(N2C[C@H](CCCCC)[C@@H](CC(=O)NCc3ccc(OC)cc3)C2=O)cc1`: the “hERG current change (%, negative = inhibition) at 10uM” value was -16.6%.
For `O=C(COC(=O)[C@H](Cc1ccccc1)NC(=O)c1cccs1)Nc1c(Cl)cccc1Cl`, the “hERG current change (%, negative = inhibition) at 10uM” value is -8.03%.
Take `Oc1cccc(/C=N/NP(=S)(c2ccccc2)c2ccccc2)c1`: the “hERG current change (%, negative = inhibition) at 10uM” value is -7.93%.
Consider `Cc1c(C(=O)c2cccc(F)c2)c2ccccn2c1CCC#N`, for which the “hERG current change (%, negative = inhibition) at 10uM” value is given as -2.51%.
For `COc1ccc([C@H]2CC(=O)C=C(c3ccc(C(=O)O)cc3)C2)cc1OC`, the “hERG current change (%, negative = inhibition) at 10uM” value was 1.78%.
Regarding `CCCn1c(SCC(=O)c2c(N)n(C3CC3)c(=O)[nH]c2=O)nnc1-c1ccncc1`, the “hERG current change (%, negative = inhibition) at 10uM” value turned out to be 8.49%.
Regarding `COCC(C)n1c(SCc2nc(N)nc(Nc3ccccc3C)n2)nc2ccccc2c1=O` (stereo not drawn), the “hERG current change (%, negative = inhibition) at 10uM” value is reported as 2.12%.
As to `Cc1ccccc1C(=O)Nc1cccc(-c2nnc(SCC(=O)O)n2C)c1`, the “hERG current change (%, negative = inhibition) at 10uM” value turned out to be 11.4%.
Turning to `Cc1ccc(S(=O)(=O)Nc2ccccc2)cc1C(=O)N1CCCC1`, the “hERG current change (%, negative = inhibition) at 10uM” value is -4.95%.
Turning to `C=CCN1C=C2C(=O)C(C)(OC(=O)CCc3ccccc3)C(=O)C=C2C=C1c1ccc(C#N)cc1` (stereo not drawn), the “hERG current change (%, negative = inhibition) at 10uM” value was -28.8%.
Regarding `Cc1ccc(C(=O)c2oc3ccccc3c2NC(=O)c2cc(-c3cc(C)ccc3O)n[nH]2)cc1`, the “hERG current change (%, negative = inhibition) at 10uM” value is 18.5%.
In the case of `O=C(COc1ccccc1)c1cn(Cc2ccccc2)c2ccccc12`, the “hERG current change (%, negative = inhibition) at 10uM” value stood at 7.62%.
For the compound `N=c1c(C(=O)NCCc2ccccc2)cc2c(=O)n3ccccc3nc2n1CC1CCCO1` (stereo not drawn), the “hERG current change (%, negative = inhibition) at 10uM” value is -90.7%.
Consider `COc1ccccc1NC(=O)Cn1c(=O)n(C)c(=O)c2sc3c(c21)COC(C)(C)C3`, for which the “hERG current change (%, negative = inhibition) at 10uM” value was 5.81%.
Regarding `Cc1ccc(C(=O)Nc2ccc(S(=O)(=O)N3CCN(C)CC3)cc2)cc1`, the “hERG current change (%, negative = inhibition) at 10uM” value was -12.7%.
Turning to `Cc1nnc(Sc2cc(C(=O)NCCCN(C)Cc3ccccc3)c3ccccc3n2)s1`, the “hERG current change (%, negative = inhibition) at 10uM” value is on record as -56.2%.
The value for `CN(Cc1ccccc1)C(=O)c1ccc(NC(=O)Cc2cccc(NC(=O)C3CCCN(C(=O)C4CCCC4)C3)c2)cc1` (stereo not drawn) was 5.82%.
In the case of `Cc1cccc(C(=O)NC(=S)Nc2ccccc2C(=O)O)c1`, the “hERG current change (%, negative = inhibition) at 10uM” value is given as 6%.
Turning to `CC(C)CCC(C(=O)O)C(C)CC(=O)NC1CCCCC1` (stereo not drawn), the “hERG current change (%, negative = inhibition) at 10uM” value was -1.38%.
In the case of `COc1ccc(S(=O)(=O)NCC(=O)N(CC(=O)NCC2CCCO2)c2ccccc2C)cc1` (stereo not drawn), the “hERG current change (%, negative = inhibition) at 10uM” value came out at 11%.
Then `CCOC(=O)CSc1n[nH]c(=S)s1`, with 7.03%; and `COc1ccc(C(=O)NNC(=O)C(C)NC(=O)c2ccccc2NC(=O)c2ccco2)cc1` (stereo not drawn), with 22.3%.
On to `Cc1ccc(NS(=O)(=O)c2sc3ccc(Cl)cc3c2C)cc1`, for which the “hERG current change (%, negative = inhibition) at 10uM” value is 10.2%.
Then `COC(=O)C1=C(C)NC(=O)NC1c1ccc2c(c1)OCO2` (stereo not drawn), with 17.1%.
For the compound `Cc1c(C=O)c(C=O)c(C)n1Cc1ccccc1`, the “hERG current change (%, negative = inhibition) at 10uM” value was found to be 1.26%.
On to `COc1c(C)cc(C(=O)C2CCCN(C(=O)C3=C(C)OCCO3)C2)cc1C` (stereo not drawn), for which the “hERG current change (%, negative = inhibition) at 10uM” value was -0.363%.
Take `CN(Cc1cccs1)C(=O)c1ccc(S(=O)(=O)NCc2ccco2)cc1`: the “hERG current change (%, negative = inhibition) at 10uM” value is given as -54.2%.
In the case of `Cc1nnc(NC(=O)CN2CCN(Cc3ccccc3Cl)CC2)s1`, the “hERG current change (%, negative = inhibition) at 10uM” value is given as 6.08%.
Turning to `Cc1cccc(NC(=O)c2nc(S(=O)(=O)Cc3ccccc3)ncc2Cl)c1`, the “hERG current change (%, negative = inhibition) at 10uM” value is -3.97%.
For the compound `CCc1ccccc1OCCCCCNCCO`, the “hERG current change (%, negative = inhibition) at 10uM” value is on record as -9.67%.
In the case of `CC(C)CC(NC(=O)C1CCC(C)CC1)C(=O)NCc1cccnc1` (stereo not drawn), the “hERG current change (%, negative = inhibition) at 10uM” value is -1.3%.
The value for `O=C1CCN(C(=O)Nc2cccc(Cl)c2)N1` was 14.1%; that for `Cc1cc(NC(=O)COC(=O)C(Nc2ccc(C(F)(F)F)cc2Cl)C(C)C)no1` (stereo not drawn) was 15.1%; that for `CCCOc1ccc(CNC(=O)Cc2cccs2)cc1` was 9.1%.
With `NC(N)=N/N=C/c1ccc(OCc2ccc(Cl)cc2Cl)cc1`, the “hERG current change (%, negative = inhibition) at 10uM” value is -2.19%.
Take `O=P(c1ccccc1)(c1ccccc1)C(O)c1ccccn1` (stereo not drawn): the “hERG current change (%, negative = inhibition) at 10uM” value worked out at 13.1%.
The value for `COCCCN(C(=O)c1cc(-c2ccco2)nc2ccccc12)c1c(N)n(Cc2ccccc2)c(=O)[nH]c1=O` was -9.85%.
With `COC(=O)C1=C(c2ccc(Cl)c(C(F)(F)F)c2)C[C@@H]2CC[C@H]1N2C(=O)N1CCOCC1`, the “hERG current change (%, negative = inhibition) at 10uM” value was -6.22%.
For `C=CCN(CC=C)S(=O)(=O)c1ccc(NC(=S)NC(=O)/C=C/c2ccccc2)cc1`, the “hERG current change (%, negative = inhibition) at 10uM” value is -9.16%.
Turning to `COc1ccccc1N1C(=O)C2C(C(=O)c3ccccc3)=NN(c3ccccc3)C2C1=O` (stereo not drawn), the “hERG current change (%, negative = inhibition) at 10uM” value was found to be 9.25%.
The value for `S=c1[nH]c2ccccc2n1CCOc1ccccc1` was 8.28%; that for `CCOC(=O)c1[nH]c(C)c(C(=O)Nc2ccccc2C)c1C` was 3.89%.
Consider `CC(C)C(=O)Nc1cccc(NC(=O)c2cccc(F)c2)c1`, for which the “hERG current change (%, negative = inhibition) at 10uM” value was 5.16%.
With `COc1ccc(NC(=O)/C(=C/c2cccnc2)NC(=O)c2cccs2)cc1`, the “hERG current change (%, negative = inhibition) at 10uM” value is 16.8%.
Take `Cc1sc(NC(=O)c2ccco2)c(C(c2ccc(F)cc2)N2CCN(C)CC2)c1C` (stereo not drawn): the “hERG current change (%, negative = inhibition) at 10uM” value is reported as -68.1%.
Then `COc1cc(/C=N/OCC(=O)Nc2cc(C)cc(C)c2)ccc1OCc1ccc(Cl)cc1`, with -13.2%.
As to `Cc1cc(=O)oc2cc(OC(C)C(=O)N3CCOCC3)ccc12` (stereo not drawn), the “hERG current change (%, negative = inhibition) at 10uM” value was 7.85%.
Then `COc1cccc(-c2nnc3n2N=C(C(C)(C)C)CS3)c1`, with -31.6%; and `CCOC(=O)c1c(NC(=O)c2cc3n(n2)C(C(F)(F)F)CC(c2ccccc2)N3)sc(C)c1C` (stereo not drawn), with 3.47%.
Then `COc1ccc(OC)c(C2C(C#N)=C(N)Oc3cc(C)[nH]c(=O)c32)c1` (stereo not drawn), with 15.2%; and `Cc1oc(-c2ccc(Cl)cc2)nc1CN1CCCN(C(=O)c2ccco2)CC1`, with -72.4%; and `O=C(/C=C/Nc1ccc([N+](=O)[O-])cc1Br)c1cccc2ccccc12`, with 0.163%.
Then `Cc1cc2c(Nc3cccc(O)c3)ncnc2s1.Cl`, with 5.03%; and `N#CC1=C(N)N(c2ccc(F)cc2)C(=O)C1`, with 1.83%; and `CCCCN(CCCC)C(=O)/C=C/c1cccc([N+](=O)[O-])c1`, with -68%.
As for `Cc1cc(C)cc(N2CCCn3c2nc2c3c(=O)[nH]c(=O)n2C)c1`, the “hERG current change (%, negative = inhibition) at 10uM” value came out at 13.6%.
`O=C(Nc1ccc2oc(-c3cccnc3)nc2c1)c1ccc2c(c1)OCCO2`: the “hERG current change (%, negative = inhibition) at 10uM” value is on record as 20.2%.
The value for `CC(C)Cc1cc(C(=O)Nc2ccc3c(c2)OCO3)no1` was -4.32%.
Take `Cc1cccn2cc(-c3cccc(NC(=O)c4cccs4)c3)nc12`: the “hERG current change (%, negative = inhibition) at 10uM” value is -29.3%.
Turning to `O=C(CN1C(=O)c2ccccc2C1=O)OCC(=O)c1ccc(F)cc1`, the “hERG current change (%, negative = inhibition) at 10uM” value is listed as -2.92%.
The value for `Cc1ccc(OCc2nc(C#N)c(NCc3ccc4c(c3)OCO4)o2)cc1` was -1.97%; that for `Cc1cc(C)c(S(=O)(=O)N2CCCC(C(=O)NCc3ccccn3)C2)c(C)c1` (stereo not drawn) was -10.8%; that for `COC(=O)c1cc2ccccc2n1S(=O)(=O)c1ccccc1` was 2.84%.
Then `CCOC(CNC(=O)c1cccn2c(=O)c3c(C)c(C)sc3nc12)OCC`, with -12.5%; and `COc1ccc(CNC(=O)C2CC(c3ccccc3[N+](=O)[O-])=NO2)cc1` (stereo not drawn), with -27.7%; and `CCc1ccc(OCC(=O)Nc2ccncc2)cc1`, with 11%.
With `CCN(CC)c1ccc(/C=N/NC(=O)Nc2ccccc2)cc1`, the “hERG current change (%, negative = inhibition) at 10uM” value is reported as 16.9%.
The value for `N#CCC(=O)N1CCN(Cc2ccc3c(c2)OCO3)CC1` was 16.3%; that for `Cc1oc2c(CN3CCCC3)c(O)ccc2c(=O)c1-c1ccccc1` was -15.5%.
In the case of `O=C(O)CCn1c(C(=O)O)cc2sccc21`, the “hERG current change (%, negative = inhibition) at 10uM” value is 13.1%.
Take `CC(C)CNS(=O)(=O)c1ccc2c(c1)OCCO2`: the “hERG current change (%, negative = inhibition) at 10uM” value is -11%.
